# About 190 (3.5%) of roughly 5,400 compounds showed an effect of 50% or more. Some of the results follow.
# System: Vero-E6
# Experiment: primary screen, phospholipidosis by LipidTOX staining; higher = more effect of the substance
# Conditions: 10 µM
# Summary of the method: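 Single-concentration screen at 10 μM, with DMSO 0.1 v/v % and amiodarone 10 μM as controls. Read-out is LipidTOX Red phospholipid staining, which tolerates aldehyde fixation, in Vero-E6 cells.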
row,SMILES,result_ITMP
1,Cc1ccnc(NC(=O)C(C)c2cccc(C(=O)c3ccccc3)c2)c1 (centres unmarked),-3.2%
2,N=C(N)NC(=N)Nc1cccc(Cl)c1,6.24%
3,COc1cc2c(NC3CCN(C(C)C)CC3)nc(C3CCCCC3)nc2cc1OCCCN1CCCC1,60.7%
4,O=C(O)[C@]1(Cc2cccc(Nc3nccs3)n2)CC[C@@H](Oc2cccc(Cl)c2F)CC1,3.96%
5,COc1ccc2c(c1OC)C(=O)O[C@H]2[C@H]1c2c(cc3c(c2OC)OCO3)CCN1C,-1.85%
6,COc1c2occc2cc2ccc(=O)oc12,11.7%
7,N=C(NCCCCCCNC(=N)NC(=N)Nc1ccc(Cl)cc1)NC(=N)Nc1ccc(Cl)cc1,26.4%
8,NCc1ccccc1CC(=O)N[C@@H]1C(=O)N2C(C(=O)O)=C(CSc3nnnn3CC(=O)O)CS[C@H]12,-2.42%
9,Cn1c(=O)c2c(ncn2CC(=O)Nc2ccc(-c3ccccc3)nn2)n(C)c1=O,-2.21%
10,CCc1ccccc1OC[C@@H](O)CN[C@H]1CCCc2ccccc21,39.1%
11,CC(C)CC(N)=O,-2.37%
12,Cc1cc2sc(NC(=O)Cc3ccccc3)nc2cc1Cl,-2.21%
13,Oc1ccc2ccccc2c1,2.96%
14,CCOC(=O)[C@@H](N)Cc1ccc(-c2cc(O[C@H](c3ccc(Cl)cc3-n3ccc(C)n3)C(F)(F)F)nc(N)n2)cc1,2.15%
15,C[N+]1(C)CCC(OC(=O)C(O)(c2ccccc2)C2CCCC2)C1 (centres unmarked),5.08%
16,COc1ccc(CNC(=O)c2sc3nc(C)cc(C)c3c2N)cc1,0.46%
17,O=C(O)[C@@H]1C[C@@H](C2CCCCC2)CN1C(=O)CP(=O)(O)CCCCc1ccccc1,-0.11%
18,O=C(Nc1cccc(Cl)c1)c1ccccn1,-2.47%
19,CN(C(=O)CN1C(=O)COc2cc(Cl)c(Cl)cc21)[C@@H](CN1CCCC1)c1ccc(-c2cccc(C(N)=O)c2)cc1,41.8%
20,Clc1ccc(CCC(Cn2ccnc2)Sc2c(Cl)cccc2Cl)cc1 (centres unmarked),15.2%
21,N[C@H](C(=O)O)c1ccc(O)c(C(=O)O)c1,-2.54%
22,CN(C)C(=O)Nc1cccc(-c2ccc(N(C)C)cc2)c1,-8.09%
23,N#Cc1ccc(C(c2ccc(C#N)cc2)n2cncn2)cc1,-0.05%
24,CC(=O)NC[C@H]1CN(c2ccc(-c3ccc(CNCc4cnn[nH]4)cc3)c(F)c2)C(=O)O1,-4.98%
25,CC(=O)OCC(=O)[C@H]1CC[C@H]2[C@@H]3CC[C@H]4C[C@H](O)CC[C@]4(C)[C@H]3C(=O)C[C@]12C,-8.55%
26,O=C(O)Cc1ccc(-c2ccccc2)cc1,-2.18%
27,CC(C)N(C[C@H]1O[C@@H](n2cnc3c(N)ncnc32)[C@H](O)[C@@H]1O)C1CC(CCc2nc3cc(C(C)(C)C)ccc3[nH]2)C1 (some centres unmarked),-3.75%

row,SMILES,result_ITMP
1,O=C(O)c1cn(-c2ccc(F)cc2)c2cc(N3CCNCC3)c(F)cc2c1=O,-2.73%
2,Fc1ccc2nc(CCC#Cc3ccccn3)cn2c1,-0.93%
3,NS(=O)(=O)Nc1ncnc(OCCOc2ncc(Br)cn2)c1-c1ccc(Br)cc1,-0.48%
4,C[C@@H](NCc1cc(Br)cc2[nH]c(=O)c(=O)[nH]c12)P(=O)(O)O,-1.62%
5,c1ccc(-c2ncc(CN3CCN(c4ncccn4)CC3)[nH]2)cc1,3.76%
6,CN1CCN(Cc2ccc(Nc3ncc(Cl)c(Nc4ccccc4S(=O)(=O)N(C)C)n3)cc2)CC1,1.65%
7,COC(=O)c1ccc2c(c1)nc(NC(=O)c1ccccc1)n2CCCc1ccccc1,-2.38%
8,O=S(=O)(F)Cc1ccccc1,-2.82%
9,Oc1ncc(F)cn1,-8.73%
10,c1ccc(NCc2ccc(CNc3ccccn3)cc2)nc1,2.9%
11,COc1ccc(CN2C(=O)C(=O)c3cc(OC(F)(F)F)ccc32)cc1,1.71%
12,Cc1ccccc1OCC(O)CNCCOc1ccc(C(N)=O)cc1 (centres unmarked),8.71%
13,O=C(O)c1cc2occc2[nH]1,-4.85%
14,Cc1nnc(C(=O)NC(C)(C)c2nc(C(=O)NCc3ccc(F)cc3)c(O)c(=O)n2C)o1,-6.05%
15,OCCNCCCOc1cccc(Cl)c1Cl,55.4%
16,O=C(Nc1ccc(Cl)cc1)Nc1ccc(Cl)c(Cl)c1,-9.98%
17,CN[C@@H](C)C(=O)N[C@H](C(=O)N1CCC[C@H]1c1nc(C(=O)c2ccc(F)cc2)cs1)C1CCCCC1,5.58%
18,C=Cc1cc(O)cc2nc(-c3ccc(O)c(F)c3)oc12,-1.45%
19,O=C1c2c(O)cccc2Cc2cccc(O)c21,-3.33%
20,CN1C(=O)C(N2CCCCC2)S/C1=C\C(=O)O (centres unmarked),-8.42%
21,CN1c2cc3c(cc2N=C(c2ccc(C(=O)O)cc2)c2ccccc21)C(C)(C)CCC3(C)C,-10.3%
22,CO[C@H]1C[C@H](O[C@H]2[C@H](C)O[C@@H](O[C@@H]3/C(C)=C/C[C@@H]4C[C@@H](C[C@]5(C=C[C@H](C)[C@@H](C6CCCCC6)O5)O4)OC(=O)[C@@H]4C=C(C)[C@@H](O)[C@H]5OC/C(=C\C=C\[C@@H]3C)[C@]54O)C[C@@H]2OC)O[C@@H](C)[C@@H]1O,2.09%
23,O=c1c(-c2ccc(O)cc2)coc2c(C3OC(CO)C(O)C(O)C3O)c(O)ccc12 (centres unmarked),-3.26%
24,CC[C@H](C)[C@H](NC(=O)[C@H](CCC(=O)O)NC(=O)[C@H](CCC(=O)O)NC(=O)[C@H](Cc1ccccc1)NC(=O)[C@H](CC(=O)O)NC(=O)CNC(=O)[C@H](CC(N)=O)NC(=O)CNC(=O)CNC(=O)CNC(=O)CNC(=O)[C@@H]1CCCN1C(=O)[C@H](CCCNC(=N)N)NC(=O)[C@@H]1CCCN1C(=O)[C@H](N)Cc1ccccc1)C(=O)N1CCC[C@H]1C(=O)N[C@@H](CCC(=O)O)C(=O)N[C@@H](CCC(=O)O)C(=O)N[C@@H](Cc1ccc(O)cc1)C(=O)N[C@@H](CC(C)C)C(=O)O,0.65%
25,O=C1C[C@@H](c2ccccc2)Oc2cc(O)cc(O)c21,-6.76%
26,COc1cc(C(=O)OCCCN2CCCN(CCCOC(=O)c3cc(OC)c(OC)c(OC)c3)CC2)cc(OC)c1OC,58.7%
